Measurements from PubChem BioAssay AID504332 (National Center for Advancing Translational Sciences (NCATS), 2011).
The campaign covered roughly 350,000 compounds. About 31,000 (8.9%) were called active. This list was built around the results that the source calls inconclusive (neither active nor inactive); the mix of calls is not that of the screen. The call rests on the fitted dose curve; in most records, active means well fitted inhibition curve with a large enough effect; inconclusive means small, poorly fitted or top-dose-only effect; inactive means no such curve, though single readings can be large or run the other way. Potencies of inconclusive entries are doubtful fits and often do not repeat. Where a SMILES comes first, the peptide text is derived from it. Bridges are numbered along the chain shown (N, C = ends). [ ]: non-standard residue; d: D form. The star is where a group is joined. ξ: configuration not given here. Octanoyl(6-Me) = CCC(C)CCCCC(=O)*; ξThr(3R) = C[C@@H](O)C(N)C(=O)O; dDab = NCC[C@@H](N)C(=O)O; Dab = NCC[C@H](N)C(=O)O

What follows are compounds tested against Histone-lysine N-methyltransferase EHMT2 (Homo sapiens) (UniProt Q96KQ7) (assay: qHTS Assay for Inhibitors of Histone Lysine Methyltransferase G9a). Details: G9a H3K9 monomethylation, AlphaScreen, 2 h; activity, negative = inhibition: at 59 µM (top of the series) unless noted.
Sequence of UniProt Q96KQ7 (Q96KQ7 whole entry, looked up): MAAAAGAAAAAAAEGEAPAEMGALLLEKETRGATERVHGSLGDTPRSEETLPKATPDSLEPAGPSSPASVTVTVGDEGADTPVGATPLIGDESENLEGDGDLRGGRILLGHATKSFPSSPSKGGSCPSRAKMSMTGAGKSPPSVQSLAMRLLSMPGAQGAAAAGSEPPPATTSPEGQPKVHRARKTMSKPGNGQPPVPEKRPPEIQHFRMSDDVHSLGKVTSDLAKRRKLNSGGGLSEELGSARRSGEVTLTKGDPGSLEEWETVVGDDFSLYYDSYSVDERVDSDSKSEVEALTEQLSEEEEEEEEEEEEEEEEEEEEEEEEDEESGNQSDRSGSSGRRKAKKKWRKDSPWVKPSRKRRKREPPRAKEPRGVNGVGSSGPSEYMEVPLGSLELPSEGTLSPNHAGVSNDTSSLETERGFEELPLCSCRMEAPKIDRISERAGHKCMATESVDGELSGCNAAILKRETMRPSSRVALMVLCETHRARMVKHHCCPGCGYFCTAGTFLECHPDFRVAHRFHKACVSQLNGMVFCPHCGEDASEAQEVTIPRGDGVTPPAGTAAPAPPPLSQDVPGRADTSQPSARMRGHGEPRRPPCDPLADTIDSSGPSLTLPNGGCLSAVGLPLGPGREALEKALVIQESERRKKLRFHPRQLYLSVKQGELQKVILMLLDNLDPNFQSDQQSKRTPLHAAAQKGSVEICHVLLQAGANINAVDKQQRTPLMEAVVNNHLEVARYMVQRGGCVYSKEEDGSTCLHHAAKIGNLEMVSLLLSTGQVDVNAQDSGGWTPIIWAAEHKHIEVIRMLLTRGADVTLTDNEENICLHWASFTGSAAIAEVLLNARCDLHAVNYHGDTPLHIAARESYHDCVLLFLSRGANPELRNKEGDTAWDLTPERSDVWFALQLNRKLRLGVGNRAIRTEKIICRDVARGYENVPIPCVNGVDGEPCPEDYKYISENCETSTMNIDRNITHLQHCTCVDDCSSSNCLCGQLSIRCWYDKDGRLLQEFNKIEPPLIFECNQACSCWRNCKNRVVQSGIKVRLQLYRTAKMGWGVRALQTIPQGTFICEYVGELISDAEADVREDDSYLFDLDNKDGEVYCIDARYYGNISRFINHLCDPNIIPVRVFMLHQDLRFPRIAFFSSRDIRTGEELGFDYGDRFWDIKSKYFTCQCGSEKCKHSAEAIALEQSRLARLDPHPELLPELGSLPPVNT
In short: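 AlphaScreen detection with an anti-monomethyl H3K9 antibody quantified product after a 2 h room-temperature reaction containing 500 nM biotinylated H3K9 peptide, 20 µM SAM and 20 nM enzyme, which had been preincubated 15 min with compound.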
Further: nearly all actives have a fitted effect of over 75% in size.
On the % scale 0 is the no-effect control and ±100 the full control effect; potency means the concentration at half of the fitted maximal effect; tags describe the fitted curve by direction and shape.

SMILES	Potency	activity, negative = inhibition
O=C(CSc1nnc(NC(=O)c2ccccc2F)s1)NCC1CCCO1 (stereo not given)	active: 14.1 µM	–
Cc1ccc(N2CC(C)Cn3c2nc2c3c(=O)n(CC(=O)OCc3ccccc3)c(=O)n2C)cc1C (stereo not given)	–	inactive: -5.09% [at 12.7 µM]
CN1CCN(NC(=O)c2cccs2)CC1	–	inactive: -32.6% [at 102 µM]
O=c1c2c3c(sc2n(Cc2ccc(F)cc2Cl)c(=O)n1-c1ccc(Cl)cc1)CCC3	–	inactive: 26.7%
Cc1ccc(NC(=O)c2sc3ncnc(N(C)C4CCCCC4)c3c2C)cc1	inconclusive: 0.708 µM [inhibitor, partial curve, poor fit]	–
CC(=O)c1ccc(N2CCN(C(=O)C3CCN(S(=O)(=O)c4c(C)noc4/C=C/c4ccccc4F)CC3)CC2)cc1	–	inactive: -4.34%
CC(=O)c1ccc(N=Nc2ccc(C)cc2)cc1	active: 7.94 µM	–
COc1cccc(Nc2nc3ccc(C(=O)c4ccccc4)cc3n3c(C)nnc23)c1	–	inactive: 6.38%
COc1ccc(Cl)cc1NC(=O)CN(C)C(=O)c1cc2c(s1)CCCC2	inconclusive: 50.1 µM [inhibitor, partial curve]	–
COc1ccc(/C=C/C(=O)c2ccc(Cl)s2)cc1O	inconclusive: 100 µM [inhibitor, single point]	–
O=C(CSc1nc2ccccc2c(=O)n1-c1ccccc1)NC(=O)CN1CCCC1=O	active: 50.1 µM	–
Cc1nnc(NC(=O)CCCOc2ccccc2)s1	–	inconclusive: -65.2% [inhibitor]
Cc1ccccc1OCc1ccc(-c2nc(C#N)c(N3CCC(C(N)=O)CC3)o2)o1	active: 10 µM	–
CC(=O)N1CCN(Cc2nc3cc(NC(=O)COc4cccc(C)c4)ccc3n2C)CC1	active: 6.31 µM	–
CCOc1ccc2cc(-c3nnc(Nc4ccc(C)cc4)s3)c(=O)oc2c1	–	inactive: -40.4%
N#C/C(=C\c1ccc(C(=O)O)cc1)c1nc2sc3c(c2c(=O)[nH]1)CCCC3	active: 39.8 µM	–
Cc1cc(NS(=O)(=O)c2ccc(NC(=S)NC(=O)c3ccc(C(C)(C)C)cc3)cc2)no1	inconclusive: 89.1 µM [inhibitor, single point]	–
Cc1ccccc1-c1nc(SCC(=O)N(C)c2ccccc2)c2c(=O)n(C)c(=O)n(C)c2n1	–	inactive: -0.81%
O=c1c(-c2cc(F)cc(F)c2)nc2cnc(N3CCNCC3)nc2n1CCc1ccccc1	–	inactive: -0.889% [at 12.7 µM]
Cc1ccccc1NS(=O)(=O)c1nnc(NC(=O)c2ccco2)s1	inconclusive: 0.708 µM [inhibitor, full curve, poor fit]	–
CC(=O)NCc1ccc(S(=O)(=O)NC(C(=O)O)C(C)C)cc1 (stereo not given)	inconclusive: 39.8 µM [inhibitor, full curve]	–
COc1ccc(CCNc2oc(COc3ccccc3F)nc2C#N)cc1OC	active: 44.7 µM	–
Cc1sc2ncnc(N3CCC(C(=O)Nc4ccc(Cl)c(Cl)c4)CC3)c2c1C	–	inactive: -0.53% [at 12.7 µM]

SMILES	Potency	activity, negative = inhibition
COc1cc(NC(=O)CC(c2cccs2)N2Cc3ccccc3C2=O)cc(OC)c1OC (stereo not given)	–	inactive: -30.5%
CCOC(=O)c1cc(C)n(CC2CCC(C(=O)Nc3cc(OC)cc(OC)c3)CC2)c1C (stereo not given)	inconclusive: 7.08 µM [inhibitor, single point]	–
Cc1ccc(C(C[N+](=O)[O-])Sc2ccc(N)cc2)cc1 (stereo not given)	active: 39.8 µM	–
Cc1ccc(N2C(S)=C(C#N)C(=O)NC23CCCCC3)cc1	active: 28.2 µM	–
CCC(C)CCCCC(=O)N[C@@H](CCN)C(=O)N[C@H](C(=O)N[C@@H](CCN)C(=O)N[C@H]1CCNC(=O)C([C@@H](C)O)NC(=O)[C@@H](CCN)NC(=O)[C@H](CCN)NC(=O)[C@H](CC(C)C)NC(=O)[C@@H](CC(C)C)NC(=O)[C@H](CCN)NC1=O)[C@@H](C)O (stereo partly drawn) ({Octanoyl(6-Me)}-[Dab]T[Dab][Dab][Dab][dL]L[Dab][dDab][ξThr(3R)]; lactam 4-C)	inconclusive: 3.16 µM [inhibitor, partial curve, poor fit]	–
COc1ccc(N2CCN(c3oc(Cc4ccccc4)nc3C#N)CC2)cc1	inconclusive: 3.16 µM [inhibitor, single point]	–
CCc1ccccc1N1C(=O)N(CC(=O)c2ccc(OC)cc2)c2ccccc2S1(=O)=O	–	inactive: -3.63%
CN(C(=O)NC(=O)C1=C(N2CCOCC2)/C(=C/c2ccccc2)CC1)S(C)(=O)=O	inconclusive: 25.1 µM [inhibitor, single point]	–
O=C(CNc1ccc(Cl)cc1)NNC(=S)NCc1ccccc1	active: 50.1 µM	–
CCc1nnc(NC(=O)CC(CN(C)S(=O)(=O)c2ccccc2)c2ccccc2)s1 (stereo not given)	inconclusive: 28.2 µM [inhibitor, single point]	–
Cc1cccc(NC(=O)CSc2nc3ccccc3o2)c1	–	inactive: 11.5% [at 102 µM]
Cc1nn(C(=O)c2cc([N+](=O)[O-])ccc2Cl)c(C)c1Br	inconclusive: 15.8 µM [inhibitor, single point]	–
Cc1ccccc1-c1nnc(NC(=O)c2ccc(N3C(=O)CCC3=O)cc2)s1	inconclusive: 89.1 µM [inhibitor, single point]	–
COc1ccc(C(=O)N2CCSC2=S)cc1OC	inconclusive: 7.08 µM [inhibitor, partial curve]	–
O=C1[C@H]2[C@@H](C(=O)N1c1cc(Cl)cc(Cl)c1)[C@]1(C(=O)Nc3ccccc31)N1CCC[C@@H]21	inconclusive: 50.1 µM [inhibitor, partial curve, poor fit]	–
CC1CCCN(C(=O)CCNC(=O)Cn2cnc3ccccc3c2=O)C1 (stereo not given)	–	inactive: 16.1% [at 102 µM]
O=C(c1ccccc1)N1CCN(C2CC3CCC2C3)CC1 (stereo not given)	active: 15.8 µM	–
CCOC(=O)C(NC(=O)c1ccccc1Cl)(Nc1ccc(C(F)(F)F)cc1)C(F)(F)F (stereo not given)	–	inactive: 16.4%
C=C1CCN([C@H](C(=O)NCc2cc(OC)c(OC)c(OC)c2)C(C)C)S(=O)(=O)c2ccccc21	inconclusive: 1.41 µM [inhibitor, single point]	–
O=C(/C=C/c1ccco1)Nc1cccnc1Cl	active: 79.4 µM	–
O=C(CN(Cc1ccccc1)C1=NCCS1)c1ccc(Cl)cc1	active: 44.7 µM	–
O=C(O)C1=C[C@@H](c2ccc3c(c2)OCO3)C[C@@H](OCCCCO)O1	–	inconclusive: -81.4% [inhibitor]
